The other results are listed elsewhere or left out. At the low end of the ranking, values are background and their order means little. Measured with an extract: partners may take part in the binding.
The sequences below were run against T1, HNF4alpha2 (COS-7 nuclear extract) (UniProt P41235) (assay: protein-binding microarray). Details: COS-7 nuclear extract on double-stranded Agilent 4x180k PBM; binding buffer, salt, pH and temperature not given; high values mean tight binding; double strand, one strand shown; sequences stand for … in …GCCTAGGGAGATTAGAGTATCGGTCGA.
T1 sequence: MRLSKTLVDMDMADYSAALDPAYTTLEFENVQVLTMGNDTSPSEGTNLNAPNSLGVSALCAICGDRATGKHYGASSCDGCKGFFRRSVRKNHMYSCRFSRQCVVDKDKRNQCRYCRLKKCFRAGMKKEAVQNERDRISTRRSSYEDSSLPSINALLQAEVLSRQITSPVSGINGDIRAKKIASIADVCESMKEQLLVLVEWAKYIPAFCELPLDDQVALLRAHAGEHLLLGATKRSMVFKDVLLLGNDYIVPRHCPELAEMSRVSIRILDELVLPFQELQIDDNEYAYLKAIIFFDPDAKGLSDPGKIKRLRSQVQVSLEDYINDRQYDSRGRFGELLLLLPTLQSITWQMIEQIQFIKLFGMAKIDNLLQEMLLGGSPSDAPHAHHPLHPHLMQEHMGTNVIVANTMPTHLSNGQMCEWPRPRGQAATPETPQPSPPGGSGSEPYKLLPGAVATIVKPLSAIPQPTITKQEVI

| Sequence | binding signal (log2 normalized intensity) |
| --- | --- |
| CTGTGAAAGAAAAGTACTTTAGTGTATTGT | 1.37 |
| CTCTCTTAACAGTCTGTTATCCCTAGGAAG | 0.844 |
| GGATAGCGTCATCAGTCCAGGAGGGTCACA | 1.32 |
| TGTCATACTGGTTGAATGGACGGACAGGTA | 1.66 |
| CCTCGCCTATGGTATGTATGGAATGTCACT | 1.63 |
| TAATTTTGCACAGCCAGCCTGAGGCAGTTG | -1.14 |
| ACCCAAATATGGTCCCTGACCTTAAGGAGT | 2.15 |
| AGTGTGCAAATGTGTCTTTTTTAGTCAGCA | 1.32 |
| ATTGCAAGGATTCCAAATTTAGTGAGTGGT | 1.21 |
| TTATGTTCACCTCAGCACTGAGATAAAAAT | 0.185 |
| TGATGAGTCCAAGTTCCACATCAAGCACAT | 0.00918 |
| CATCTGCTCACATACCACTGACTAAAGCAA | -1.16 |
| ACTTATCAGGGTTATTTGCTAAAACTGGGC | 0.915 |
| TTTTCGAATGGACAGGATGTTCTACACTGC | -0.942 |
| GAGCTACCGCCTGAACCTTGGATCTCCTGC | 2.1 |
| AGCAAAGGTTGGCTAAAGATAACCTAGAAA | -1.13 |
| TGACTTGGGTGCACCAATGATCAAAGAGAC | 0.0185 |
| CCCCGTTCCCGGCAGCCCGCGCGTGGCCCA | 2.39 |
| GTTTTGAAAGACCTTTTCCCTCCCTCCCAG | 3.65 |
| CCAGCTCCTCTTCACACCATGCTCTAGTCT | -0.56 |
| GCCAGATGGCCACCCTTCAGCAAATAGTGG | -1.17 |
| AGGTAGAGTCTAAGGCTAAAACATCCTGGG | -1.09 |
| ACCTTTGGTCTTTGGTGAAACTCCACTACA | 0.744 |
| GAATATTTATCAGATACAGGAGATCAGATG | -0.595 |
| CGCCTTCATTCCTAGCCCCACCAAACTGAC | 3.71 |

| Sequence | binding signal (log2 normalized intensity) |
| --- | --- |
| AAAACTTGGACTCTATAGCCTATGCTTTGT | 0.709 |
| GCAGTGAGGGTGGGTTCAAAGGTCAGAAAA | 7.95 |
| ATTGATGGTTTTATCAGCTGAGGCCATTGC | 0.854 |
| GCCTTATTATCTGCTTTTATGACCTTTGAC | 7.34 |
| GACTCTTGGGCAGTCTAAAGTCTGATCCCA | 1.4 |
| GGATGGGGACAAAGGTCAAGAAAGCTTTTG | 5.69 |
| TCTAGGAACCTTTCTCCATACCTCTTGCGT | -0.051 |
| TTAAAGAATTTTTCCCCTAGTTACAACTGT | 1.61 |
| GGATGAAGGCTGCTGCCTGAAAGGCCAAGC | -1.2 |
| ATCAGCAAACACAGATAGCATAATCAAAGA | -1.18 |
| TGTTGGGGAACTTTGCCCGGATTCCAGCAA | 0.995 |
| TTCAAAGGTAGGGCCTACCTGCCTGAGCTA | -1.24 |
| ATTCCACCCTCATTTGCTTGACCCGGGTAC | 2.6 |
| GGGCATGAAGTCAAAGGAGGCATTCCTGCA | -1.13 |
| AACTGTGTAATAAGGAGTTGTGTGATAAGG | 1.26 |
| GGGCTGAGCCCACAGTCCAGTACCATTTCC | -1.07 |
| GCCCCAGTGATGACAGCAAGATAATGTCAA | 1.18 |
| GTTTGCAAGCCCAAAGCCCCCAGAGGTTCT | 2.89 |
| CTGCAGGTCTCTAAATGGTAGGATTGTTTG | 1.52 |
| GACGACTTACTTTTATCAGGTAAAGATATG | 1.32 |
| AGGTAGAGGGACACTGATAACACTGATAAC | -1.19 |
| GTTGCAACTTTGACTATAGCGTCTCCTGGC | -0.321 |
| CTAACGTATGGACTTTCTGATGTCAGAAAA | 1.53 |
| AGCTCTGAACTAACAATTCTTTCTGATAAG | -1.14 |
| ACAAGGAAAAATGACCATCTCGTCAAGGTG | -1.2 |

| Sequence | binding signal (log2 normalized intensity) |
| --- | --- |
| ATCCTCAAGAAACACAGAACTATCAAACAT | -1.06 |
| ACATAAATGTGCCCAGATAAGAACTGCAAG | -1.19 |
| GGAGTAGGCTTTAGATAAGGTATGTGGGAG | 0.395 |
| GAAATGGATTTTTTGGGTAAAGTCCAGGCA | 2.36 |
| AGATAAGGAGGAGACAGACTTATCGGGTAG | -1.08 |
| ACTTTCTTGTTTACTCACCTGATTCAATGT | 1.48 |
| CGCGCCGGGCACTGATAACGCCCGCCTAAC | -0.947 |
| GCCATTGTTCATACTGCAGCTCTGCGTCTT | -0.62 |
| TTGGGCTAGCCGCTCCTCCCACGTCGCTGC | -1.03 |
| TGAAAATACAAACAAATTGTGTGCAACAGG | -0.666 |
| TTAAAGGGCAGAAGAAGGGATTTAGATTAG | -0.58 |
| CCCAGCAGGCAGACTGGCTCCGCTGCTGCA | -1.08 |
| AATCTTTCAGGAATCTCAGGAGTGATGCCA | -1.05 |
| AGAGGAAGATCTTTTTGATGACTTTGTAGG | 1.03 |
| AATGTAGCCGGCTCAAAATAGGCAAGACTG | -0.587 |
| ATTGCCATCTGCAAGAGAGAATAGATAGTG | -0.971 |
| TGCGGTAGGCATTGAGGCAGCCAGCGCAGG | -1.06 |
| TCAAAGACTCAGATGAGTTTCTTCACTGAC | -1.13 |
| CAGTGAGGATGTGTGCTCGAGGTGGACTTT | 6.58 |
| GGTAAGCCACTGAACTTTCACTGCCTATCT | -1.06 |
| TGTTCCTCCAGACACGGGGATAACACCTGC | -0.974 |
| ACATTTATTGTGAGATTACGTAAGTGAAAG | 1.96 |
| TCCAAAGTTCAAACTCTGAAAGCACTAAGT | 1.04 |
| AGTGGCACTCTCTGGGTTAAACGTGCAGCA | -0.85 |
| GCACAATCAGCAAACACAGATAGCATAATC | -1.02 |

| Sequence | binding signal (log2 normalized intensity) |
| --- | --- |
| CCTAGCACTTCCCGAGTGAGGCAATGCCTC | -1.04 |
| TTCCATGTTTGTCTTTGCATTGCTCAATTT | 1.98 |
| GCCATTGACGGTATGTGAATGCCTGGGCAT | -0.879 |
| GCTTTCTTCCAAGGCTGCAAGCAAACCTGC | -1.16 |
| TCATGAGCATGCTTCCCAAATGGAGTGCCC | 0.48 |
| CAACTTCCCCAACCCTTGCACTGCTGGTTT | 1.58 |
| CACCAGCATGGTGATGCTAGCTACTACATG | -1.3 |
| ATGACCTCTTTTAGTAACTGACTTTAACTT | 1.5 |
| CTGAAGTCAATGTCAGCTAGAGGCCCTGCA | -1.2 |
| GAGTTTCTGCAGTTCTGGGCCAAAGGTCAT | 6.45 |
| ACAATAGGAATTCAACCAATGTGGAGCTGC | -1.15 |
| GCTCCTTTGAGCACTGCTGACTGTTTGCTT | 1.53 |
| CTCCCTAGAGCAGCAGTAGGCTCTCGGGCC | -1.02 |
| CCAGGTGTGCAGAGAGCAAACGAACCGGCA | -1.19 |
| CCCCGGGAGCAGCATGGCCCTTTGCAGCCC | -1.23 |
| GGGCAAGCCCACTCTCTGAGTCTGATAAGG | -1.17 |
| TAAATATGTTCCAAAGTTCAACCAGATGAT | 3.04 |
| TTTTTGAGATGGAATCTTGCCCTGTCGCCC | 2.19 |
| CAAGGGTTCAGGGCTCAGTTGACATGATAC | 1.58 |
| GCAGGAGCCACCTGTCACTCAATGCAGCAG | -1.22 |
| CAATGCCCCAGAAAGCCAGCAGGGGCTGCT | -0.844 |
| CTGGGACCCACCCACCTATGTCCTTATCCT | 1.88 |
| AGGTAGAGAGCTGTCTGCTGAGGATGTGGC | -0.345 |
| GCTGTGATGTTTGCCCATGATCATATGGAC | 2.07 |
| CCCTTGTCTTCCTCAAATTACAAAAGGAGT | 1.46 |

| Sequence | binding signal (log2 normalized intensity) |
| --- | --- |
| CCACTAGCAACAGCTGCAGTGAAATTCTGG | -1.11 |
| CTTGGCTAACAAAGCTCAGGGCAAAGACTC | -1.22 |
| TCAGTTTCATTGCACTTTGCCCTCTCTTCA | 6.57 |
| GCCAACAAACTCAATCCTGGCCTCTGAGGT | -1.15 |
| AGTCAACATGTCATTGGCAGAAGGTGGAAC | 1.67 |
| CCCCACATTCCAACACAGGGTCAATGTCCC | 2.71 |
| CTTTTTGGCCTTTGGCTGTTCGATGTATAC | 2.13 |
| TTTTTTGCTTAGATGGTTTAAAGAATTCTG | 1.46 |
| TTGATGTGAGGGTAGGAGCCTAGCTTCCTT | -1.1 |
| TTTACTTATCATAAGTCAGCCTGGCTGAAG | 1.43 |
| TTCTTCCAGTTGTGTGCACAAGAGGGTGGG | 0.619 |
| GTCAAAAGGTGTATGTGGACTTTCAACTGC | 5.14 |
| CGTAATACAAAGGCAGCCATTGACGGTATG | -0.671 |
| TTGTACACATTCCTTTGGATCATGTGTCTG | 1.67 |
| TGGGTTGAGGCTAAGAGGTGAACACATTCC | -0.453 |
| TGGTTAGTTCCAAAGGACAAATCTCACTGA | 1.11 |
| ATTCAACTTTGACTTCCATTGTGTTGCAGA | 0.927 |
| ACAGCCTTGTTTACAACGCTGTTGTCTGTG | 0.685 |
| CAGAGCTAATGTTCAAATCCAGACACTTTG | 0.377 |
| TAGGGGCCGCATTGATGTTAGAATACAAGT | -0.0126 |
| CCAGCGGGTCATTAATTCCCAGGAATTGGC | -1.1 |
| GCTTCACAGCCCTCCAACTATGCTAAGAAT | -0.516 |
| AAGTCTGAGATGAAGAGGCCAGGGGCACTC | -1.09 |
| AGATAAATGGTGTAGAGGCCAGAGGTCGTG | 1.93 |
| AATGTGCCCTTTGACCTCTCTCTCCTAACT | 6.48 |

| Sequence | binding signal (log2 normalized intensity) |
| --- | --- |
| AAACACACTTGCTCTAATCCTTTAAAAAAA | -0.966 |
| AGCTGAAGTTTGCAAACAGTAAAGAACAAA | -0.878 |
| GCCTTGGAAAACCCGGCGCGGACATAAAAT | -1.06 |
| TGCGTCCCCAGGTGAACTCAGTCCTTTCAG | 0.278 |
| TCATTTTCTTATCTCACACAGTACTTTGTA | 2.03 |
| GAGGCCTCATTGGCCAGTATCCGCCTTCAC | -1.02 |
| TCCCACTTCAGCCTCCCGAGTAGTTGGGTC | 1.75 |
| AAAAAACCTGTTCAGCCAGATTCTCTCACT | -1.08 |
| CTTTGCCCGGATTCCAGCAACTTCCTCTTG | -1.18 |
| GCCATGGACTGCTGACCTTTGAACCCTGAG | 10.1 |
| TCCACAGATAAGGAGGAGACAGACTTATCG | -1.15 |
| GCAAGACTGCATTCCCTAGATGTCGCAGTA | -1.2 |
| CACCACTAGGAAACTGACCTTTGCTCATGA | 6.73 |
| AGGAAATCAAAAACCATTTGACAATTTACA | -0.703 |
| GAGACATGTGGCCTTTGGTACAGGGCCCAG | 1.42 |
| GGTCAGAGTAAAGCTCCAGTCTCCTCCCTG | -0.958 |
| CACCAGATAGCAAGGAGACATCGCTCCTCC | -1.25 |
| CTCCAACTGCTCCTCTTCAACTGATTCTTG | 0.359 |
| AGAAAGAAAAAGTACACACCTGCAACCTAT | -1.11 |
| TTTTCATCTGATCAGTGCCCATCTGGTGGT | 1.51 |
